Changes are numbered by the printed parent chain; changes in the protein carry UniProt numbers. The list shows a part of the results.
T1: RBFOX1 RRM RbFoxmut (Fox-RRM*) (Homo sapiens, UniProt Q9NWB1 109-208, R118D;E147R;N151S;E152T)
T1 sequence: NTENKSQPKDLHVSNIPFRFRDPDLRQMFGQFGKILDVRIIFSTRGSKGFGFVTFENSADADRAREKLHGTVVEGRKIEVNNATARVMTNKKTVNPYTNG

B1: AGUGUGC (DNA:RNA)
RNA: GGGAGACCGGAAUUCAGAUUGUCCAGUGUGCUUAAAUCCCGUCGUAGCCACCA
DNA 1: CAATCTGAATTCCGGTCTCCC
DNA 2: TGGTGGCTACGACGGGATT
B2: UGCCGUG (DNA:RNA)
RNA: B1 RNA with A25U, U27C, G28C, U29G, G30U, C31G
DNA 1: CAATCTGAATTCCGGTCTCCC
DNA 2: TGGTGGCTACGACGGGATT
B3: GUAACAA (DNA:RNA)
RNA: GGGAGACCGGAAUUCAGAUUGUCCGUAACAAUUAAAUCCCGUCGUAGCCACCA
DNA 1: CAATCTGAATTCCGGTCTCCC
DNA 2: TGGTGGCTACGACGGGATT
B4: CUGUGUA (DNA:RNA)
RNA: B3 RNA with G25C, A27G, A28U, C29G, A30U
DNA 1: CAATCTGAATTCCGGTCTCCC
DNA 2: TGGTGGCTACGACGGGATT
B5: CCUGGGG (DNA:RNA)
RNA: B1 RNA with A25C, G26C, U29G, C31G
DNA 1: CAATCTGAATTCCGGTCTCCC
DNA 2: TGGTGGCTACGACGGGATT
B6: UCCAUCU (DNA:RNA)
RNA: B1 RNA with A25U, G26C, U27C, G28A, G30C, C31U
DNA 1: CAATCTGAATTCCGGTCTCCC
DNA 2: TGGTGGCTACGACGGGATT
B7: AAGGUAA (DNA:RNA)
RNA: B1 RNA with G26A, U27G, G30A, C31A
DNA 1: CAATCTGAATTCCGGTCTCCC
DNA 2: TGGTGGCTACGACGGGATT
B8: CCAGUAG (DNA:RNA)
RNA: B1 RNA with A25C, G26C, U27A, G30A, C31G
DNA 1: CAATCTGAATTCCGGTCTCCC
DNA 2: TGGTGGCTACGACGGGATT
B9: UUAAAAC (DNA:RNA)
RNA: B3 RNA with G25U, C29A, A31C
DNA 1: CAATCTGAATTCCGGTCTCCC
DNA 2: TGGTGGCTACGACGGGATT

Target: T1, RBFOX1 RRM RbFoxmut (Fox-RRM*)
Experiment: EMSA; HiTS-Eq, 1 nM pool, 10 min; buffer printed only for the single-RNA assays: 10 mM Tris pH 7.5, 150 mM NaCl, 3.4 mM EDTA, 0.001% NP-40, 30 C
Settings: tags: His6 N-terminal (pET28a); label: 5' 32P
Procedure, shortened: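 Relative association constants, normalised to the cognate motif, were derived by comparing read counts of each RNA species with those of the control reaction. The RNA sequenced was the free fraction, separated by 8% native PAGE after a 10 min equilibration in 50 µL of 1 nM 5′-radiolabelled RNA (7 randomized nucleotides) with increasing concentrations of purified wild-type or mutant RbFox RRM.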

Binder | binding signal
B1 | 0.159 KA relative to UGCAUGU
B2 | 0.185 KA relative to UGCAUGU
B3 | 0.0914 KA relative to UGCAUGU
B4 | 0.281 KA relative to UGCAUGU
B5 | 0.0659 KA relative to UGCAUGU
B6 | 0.077 KA relative to UGCAUGU
B7 | 0.122 KA relative to UGCAUGU
B8 | 0.154 KA relative to UGCAUGU
B9 | 0.0741 KA relative to UGCAUGU
